# Measurements from PMC12820563.
# This is one part of the list. The list includes weakly bound sequences.
# Target: T1, MBP-FoxP3dN (UniProt Q99JB6)
# T1 sequence: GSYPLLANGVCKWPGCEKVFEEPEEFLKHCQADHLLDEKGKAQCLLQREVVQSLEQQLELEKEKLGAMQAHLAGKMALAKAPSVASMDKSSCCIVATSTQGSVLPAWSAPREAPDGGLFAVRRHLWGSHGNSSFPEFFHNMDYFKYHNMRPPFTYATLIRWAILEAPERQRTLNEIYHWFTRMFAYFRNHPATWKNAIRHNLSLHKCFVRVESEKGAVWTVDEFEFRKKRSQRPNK
# Test: PD-seq (MBP pull-down with sequencing)
# Conditions: 20 mM Tris-HCl pH 7.5, 100 mM NaCl, 1.5 mM MgCl2, 0.4 uM protein, 0.1 uM dsDNA library, 30 min, room temperature, amylose pull-down; high values mean tight binding; double strand, one strand shown
row,Sequence,binding signal (RPM ratio (pull-down/input))
1,GATGATTGTTCTCCCAGCTGATGAATTAGTCTGATCGAGTAAACAAATTTTCCTAATCTTTCTGTTCAAGCGCCATCTAC,0.373
2,GATGATTGTTCTCCCAGCTGATGAATTCTTGTTGTCGAGTAAACAAATTTTCCTAATCTTTCTGTTCAAGCGCCATCTAC,2.36
3,GATGATTGTTCTCCCAGCTGATGAATTGAGCCATTCGAGTAAACAAATTTTCCTAATCTTTCTGTTCAAGCGCCATCTAC,3.53
4,GATGATTGTTCTCCCAGCTGATGAATTCATAACCTCGAGTAAACAAATTTTCCTAATCTTTCTGTTCAAGCGCCATCTAC,0.445
5,GATGATTGTTCTCCCAGCTGATGAATTAGTTGACTCGAGTAAACAAATTTTCCTAATCTTTCTGTTCAAGCGCCATCTAC,4.37
6,GATGATTGTTCTCCCAGCTGATGAATTGTTTCGTTCGAGTAAACAAATTTTCCTAATCTTTCTGTTCAAGCGCCATCTAC,1.24
7,GATGATTGTTCTCCCAGCTGATGAATTCAGTTCGTCGAGTAAACAAATTTTCCTAATCTTTCTGTTCAAGCGCCATCTAC,0.758
8,GATGATTGTTCTCCCAGCTGATGAATTCTAGATATCGAGTAAACAAATTTTCCTAATCTTTCTGTTCAAGCGCCATCTAC,0.375
9,GATGATTGTTCTCCCAGCTGATGAATTGATCGGTTCGAGTAAACAAATTTTCCTAATCTTTCTGTTCAAGCGCCATCTAC,0.362
10,GATGATTGTTCTCCCAGCTGATGAATTCGTGAACTCGAGTAAACAAATTTTCCTAATCTTTCTGTTCAAGCGCCATCTAC,0.302
11,GATGATTGTTCTCCCAGCTGATGAATTTAACTAATCGAGTAAACAAATTTTCCTAATCTTTCTGTTCAAGCGCCATCTAC,0.238
12,GATGATTGTTCTCCCAGCTGATGAATTGCGCGAGTCGAGTAAACAAATTTTCCTAATCTTTCTGTTCAAGCGCCATCTAC,1.18
13,GATGATTGTTCTCCCAGCTGATGAATTGAATTGGTCGAGTAAACAAATTTTCCTAATCTTTCTGTTCAAGCGCCATCTAC,1.09
14,GATGATTGTTCTCCCAGCTGATGAATTTTACTTTTCGAGTAAACAAATTTTCCTAATCTTTCTGTTCAAGCGCCATCTAC,0.576
15,GATGATTGTTCTCCCAGCTGATGAATTTAAGTTTTCGAGTAAACAAATTTTCCTAATCTTTCTGTTCAAGCGCCATCTAC,0.694
16,GATGATTGTTCTCCCAGCTGATGAATTCTGTACATCGAGTAAACAAATTTTCCTAATCTTTCTGTTCAAGCGCCATCTAC,1.1
17,GATGATTGTTCTCCCAGCTGATGAATTGTTGAGATCGAGTAAACAAATTTTCCTAATCTTTCTGTTCAAGCGCCATCTAC,0.931
18,GATGATTGTTCTCCCAGCTGATGAATTCTTGAAATCGAGTAAACAAATTTTCCTAATCTTTCTGTTCAAGCGCCATCTAC,0.29
19,GATGATTGTTCTCCCAGCTGATGAATTTGGATATTCGAGTAAACAAATTTTCCTAATCTTTCTGTTCAAGCGCCATCTAC,1.4
20,GATGATTGTTCTCCCAGCTGATGAATTGGGCGAATCGAGTAAACAAATTTTCCTAATCTTTCTGTTCAAGCGCCATCTAC,0.367
21,GATGATTGTTCTCCCAGCTGATGAATTCCTGGGGTCGAGTAAACAAATTTTCCTAATCTTTCTGTTCAAGCGCCATCTAC,0.186

row,Sequence,binding signal (RPM ratio (pull-down/input))
1,GATGATTGTTCTCCCAGCTGATGAATTGGGCCCGTCGAGTAAACAAATTTTCCTAATCTTTCTGTTCAAGCGCCATCTAC,1.06
2,GATGATTGTTCTCCCAGCTGATGAATTTCGCGGGTCGAGTAAACAAATTTTCCTAATCTTTCTGTTCAAGCGCCATCTAC,0.6
3,GATGATTGTTCTCCCAGCTGATGAATTCTCGCTGTCGAGTAAACAAATTTTCCTAATCTTTCTGTTCAAGCGCCATCTAC,0.34
4,GATGATTGTTCTCCCAGCTGATGAATTATCAGCATCGAGTAAACAAATTTTCCTAATCTTTCTGTTCAAGCGCCATCTAC,0.876
5,GATGATTGTTCTCCCAGCTGATGAATTCGCATGATCGAGTAAACAAATTTTCCTAATCTTTCTGTTCAAGCGCCATCTAC,0.877
6,GATGATTGTTCTCCCAGCTGATGAATTAACCTTTTCGAGTAAACAAATTTTCCTAATCTTTCTGTTCAAGCGCCATCTAC,0.238
7,GATGATTGTTCTCCCAGCTGATGAATTCCTCCAATCGAGTAAACAAATTTTCCTAATCTTTCTGTTCAAGCGCCATCTAC,0.238
8,GATGATTGTTCTCCCAGCTGATGAATTAACGGATTCGAGTAAACAAATTTTCCTAATCTTTCTGTTCAAGCGCCATCTAC,0.29
9,GATGATTGTTCTCCCAGCTGATGAATTTTCCCTTTCGAGTAAACAAATTTTCCTAATCTTTCTGTTCAAGCGCCATCTAC,0.241
10,GATGATTGTTCTCCCAGCTGATGAATTCAAGATTTCGAGTAAACAAATTTTCCTAATCTTTCTGTTCAAGCGCCATCTAC,0.26
11,GATGATTGTTCTCCCAGCTGATGAATTTCCGCGATCGAGTAAACAAATTTTCCTAATCTTTCTGTTCAAGCGCCATCTAC,0.549
12,GATGATTGTTCTCCCAGCTGATGAATTTTCTAACTCGAGTAAACAAATTTTCCTAATCTTTCTGTTCAAGCGCCATCTAC,0.248
13,GATGATTGTTCTCCCAGCTGATGAATTGAACGAATCGAGTAAACAAATTTTCCTAATCTTTCTGTTCAAGCGCCATCTAC,0.222
14,GATGATTGTTCTCCCAGCTGATGAATTACTCCTATCGAGTAAACAAATTTTCCTAATCTTTCTGTTCAAGCGCCATCTAC,0.309
15,GATGATTGTTCTCCCAGCTGATGAATTGCCATCTTCGAGTAAACAAATTTTCCTAATCTTTCTGTTCAAGCGCCATCTAC,1.07
16,GATGATTGTTCTCCCAGCTGATGAATTCTGTGGGTCGAGTAAACAAATTTTCCTAATCTTTCTGTTCAAGCGCCATCTAC,1.06
17,GATGATTGTTCTCCCAGCTGATGAATTATAATGCTCGAGTAAACAAATTTTCCTAATCTTTCTGTTCAAGCGCCATCTAC,0.87
18,GATGATTGTTCTCCCAGCTGATGAATTATTCCCTTCGAGTAAACAAATTTTCCTAATCTTTCTGTTCAAGCGCCATCTAC,0.264
19,GATGATTGTTCTCCCAGCTGATGAATTGATGTGCTCGAGTAAACAAATTTTCCTAATCTTTCTGTTCAAGCGCCATCTAC,1.22
20,GATGATTGTTCTCCCAGCTGATGAATTAGGCGCTTCGAGTAAACAAATTTTCCTAATCTTTCTGTTCAAGCGCCATCTAC,0.907
21,GATGATTGTTCTCCCAGCTGATGAATTCTATTTATCGAGTAAACAAATTTTCCTAATCTTTCTGTTCAAGCGCCATCTAC,6.6

row,Sequence,binding signal (RPM ratio (pull-down/input))
1,GATGATTGTTCTCCCAGCTGATGAATTGGGCTGGTCGAGTAAACAAATTTTCCTAATCTTTCTGTTCAAGCGCCATCTAC,0.424
2,GATGATTGTTCTCCCAGCTGATGAATTTCGGTAATCGAGTAAACAAATTTTCCTAATCTTTCTGTTCAAGCGCCATCTAC,0.623
3,GATGATTGTTCTCCCAGCTGATGAATTCATGGTTTCGAGTAAACAAATTTTCCTAATCTTTCTGTTCAAGCGCCATCTAC,0.909
4,GATGATTGTTCTCCCAGCTGATGAATTTTTAAATTCGAGTAAACAAATTTTCCTAATCTTTCTGTTCAAGCGCCATCTAC,0.277
5,GATGATTGTTCTCCCAGCTGATGAATTATGATTATCGAGTAAACAAATTTTCCTAATCTTTCTGTTCAAGCGCCATCTAC,3.53
6,GATGATTGTTCTCCCAGCTGATGAATTTGTCGAATCGAGTAAACAAATTTTCCTAATCTTTCTGTTCAAGCGCCATCTAC,0.715
7,GATGATTGTTCTCCCAGCTGATGAATTTTTTTCATCGAGTAAACAAATTTTCCTAATCTTTCTGTTCAAGCGCCATCTAC,0.304
8,GATGATTGTTCTCCCAGCTGATGAATTGAGAGGATCGAGTAAACAAATTTTCCTAATCTTTCTGTTCAAGCGCCATCTAC,0.236
9,GATGATTGTTCTCCCAGCTGATGAATTCGAATAATCGAGTAAACAAATTTTCCTAATCTTTCTGTTCAAGCGCCATCTAC,0.345
10,GATGATTGTTCTCCCAGCTGATGAATTGCTATAGTCGAGTAAACAAATTTTCCTAATCTTTCTGTTCAAGCGCCATCTAC,0.638
11,GATGATTGTTCTCCCAGCTGATGAATTTAGTTTATCGAGTAAACAAATTTTCCTAATCTTTCTGTTCAAGCGCCATCTAC,5.05
12,GATGATTGTTCTCCCAGCTGATGAATTTGACGCCTCGAGTAAACAAATTTTCCTAATCTTTCTGTTCAAGCGCCATCTAC,0.891
13,GATGATTGTTCTCCCAGCTGATGAATTTAGGGGGTCGAGTAAACAAATTTTCCTAATCTTTCTGTTCAAGCGCCATCTAC,0.76
14,GATGATTGTTCTCCCAGCTGATGAATTTCGCCAATCGAGTAAACAAATTTTCCTAATCTTTCTGTTCAAGCGCCATCTAC,0.826
15,GATGATTGTTCTCCCAGCTGATGAATTACAAAGGTCGAGTAAACAAATTTTCCTAATCTTTCTGTTCAAGCGCCATCTAC,0.27
16,GATGATTGTTCTCCCAGCTGATGAATTAATTTCTTCGAGTAAACAAATTTTCCTAATCTTTCTGTTCAAGCGCCATCTAC,0.745
17,GATGATTGTTCTCCCAGCTGATGAATTTTAGACGTCGAGTAAACAAATTTTCCTAATCTTTCTGTTCAAGCGCCATCTAC,0.314
18,GATGATTGTTCTCCCAGCTGATGAATTGACATCATCGAGTAAACAAATTTTCCTAATCTTTCTGTTCAAGCGCCATCTAC,0.976
19,GATGATTGTTCTCCCAGCTGATGAATTCCTGTTATCGAGTAAACAAATTTTCCTAATCTTTCTGTTCAAGCGCCATCTAC,0.996
20,GATGATTGTTCTCCCAGCTGATGAATTGTGCAAATCGAGTAAACAAATTTTCCTAATCTTTCTGTTCAAGCGCCATCTAC,1.11
21,GATGATTGTTCTCCCAGCTGATGAATTCACTGGATCGAGTAAACAAATTTTCCTAATCTTTCTGTTCAAGCGCCATCTAC,0.201
